# Measurements published in PubChem BioAssay (Tox21).
# Inconclusive results, whose numbers are uncertain, are shown with a selection of clear calls. For part of these data: Where the call is inconclusive, the potency comes from a doubtful curve fit. Active and inactive are the calls of the source. Unless noted, calls come from the whole dose curve; as a rule, active = well fitted curve in the direction sought with a large enough effect in the repeat runs; inconclusive = weak or mixed curves; inactive = no such curve, though single readings can be large; an effect the other way counts as inactive or inconclusive.
# Assays:
# [1] = qHTS assay for small molecule agonists of the p53 signaling pathway (AID 651631; calls by dose curve; note: nearly all actives have a fitted effect of over 15% in size; note: potency is the fitted concentration of half-maximal effect); conditions: HCT-116 p53RE-bla reporter, beta-lactamase FRET ratio, 16 h; activation: at 73.3 µM (top of the series) unless noted
# In short: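 Fluorescence intensity from cleaved LiveBLAzer B/G substrate (2 h, room temperature) served as the signal. Beforehand, HCT-116 reporter cells bearing p53 response elements were treated 16 h at 37 °C with DMSO-dissolved compounds.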
# [2] = qHTS assay to test for compound auto fluorescence at 590 nm (red) in HEK293 cells (AID 720679); note: % is set by controls: 0 for no effect and ±100 for the full control effect
# In short: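 HEK293 cells (2,000/well, 10% dialyzed FBS) attached 4-5 hr, then dosed with compound or DMSO and incubated overnight at 37C, 5% CO2. Red fluorescence read at 540/590 nm, Rose Bengal sodium as reference fluorophore.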
# [3] = qHTS assay for identifying genotoxic compounds that show differential cytotoxicity against isogenic chicken DT40 cell lines with known DNA damage response pathways - Rev3 mutant cell line (AID 743014); conditions: chicken DT40 Rev3-/- viability, CellTiter-Glo, 40 h; activity, negative = cytotoxicity: at 68.4 µM (top of the series) unless noted; note: potency is the fitted concentration of half-maximal effect; nearly all actives have a fitted effect of over 55% in size
# [4] = qHTS assay to identify small molecule antagonists of the estrogen receptor alpha (ER-alpha) signaling pathway - cell viability counter screen (AID 743074; calls by dose curve;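 note: HEK293 cells carrying ER-alpha-UAS-bla reporter stimulated with 17beta-estradiol; % is set by controls: 0 for no effect and ±100 for the full control effect; nearly all actives have a fitted effect of over 45% in size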)
# [5] = qHTS assay to identify small molecule antagonists of the estrogen receptor alpha (ER-alpha) signaling pathway using the BG1 cell line - cell viability counter screen (AID 743081); conditions: BG1Luc4E2 viability, CellTiter-Fluor, 22 h; activity change, negative = cytotoxicity: at 70.3 µM (top of the series) unless noted;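 note: compound given together with 17beta-estradiol as the ER stimulus; nearly all actives have a fitted effect of over 45% in size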; note: potency is the fitted concentration of half-maximal effect
# [6] = biological target: Glucocorticoid receptor (Homo sapiens) (UniProt P04150); assay: qHTS assay to identify small molecule agonists of the glucocorticoid receptor (GR) signaling pathway (AID 720691; active = well fitted activation curve with a large enough effect in the signal ratio in the repeat runs, not every such curve was filed as active; inconclusive = weak or mixed curves, or effect the other way; inactive = no such curve, though single readings can be large or run the other way; the % refers to the signal ratio; note: potency is the fitted concentration of half-maximal effect); conditions: GR-bla HeLa, beta-lactamase reporter ratio, 18 h; activation: at 62.4 µM (top of the series) unless noted
# UniProt P04150, sequence (P04150 whole entry, looked up): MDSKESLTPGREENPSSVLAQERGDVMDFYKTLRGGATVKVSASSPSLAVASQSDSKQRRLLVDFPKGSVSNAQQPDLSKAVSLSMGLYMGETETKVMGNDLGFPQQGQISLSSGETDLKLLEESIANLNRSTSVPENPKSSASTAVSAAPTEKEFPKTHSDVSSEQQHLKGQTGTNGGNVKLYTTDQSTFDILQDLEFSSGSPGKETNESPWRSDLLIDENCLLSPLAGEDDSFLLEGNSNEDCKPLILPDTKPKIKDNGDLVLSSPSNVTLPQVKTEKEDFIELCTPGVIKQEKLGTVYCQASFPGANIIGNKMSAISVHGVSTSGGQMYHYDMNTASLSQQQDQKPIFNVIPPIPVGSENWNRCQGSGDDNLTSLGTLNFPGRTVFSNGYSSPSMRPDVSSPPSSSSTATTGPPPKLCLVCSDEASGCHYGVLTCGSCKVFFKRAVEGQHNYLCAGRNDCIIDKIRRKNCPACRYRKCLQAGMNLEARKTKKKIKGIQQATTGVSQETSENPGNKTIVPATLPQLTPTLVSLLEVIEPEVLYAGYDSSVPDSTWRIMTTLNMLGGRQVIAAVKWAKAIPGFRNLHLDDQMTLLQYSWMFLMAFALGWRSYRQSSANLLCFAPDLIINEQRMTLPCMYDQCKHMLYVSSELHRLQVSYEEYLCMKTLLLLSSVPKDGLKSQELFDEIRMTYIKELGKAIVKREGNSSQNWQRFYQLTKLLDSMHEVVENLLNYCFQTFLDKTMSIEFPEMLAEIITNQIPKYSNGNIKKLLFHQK
# In short: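 Agonist mode in a HeLa line carrying a GRE-controlled beta-lactamase reporter. Compounds act for 18 h at 37 C before a 2 h room-temperature FRET substrate step and fluorescence reading.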
# [7] = biological target: Glucocorticoid receptor (Homo sapiens) (UniProt P04150); assay: qHTS assay to identify small molecule antagonists of the glucocorticoid receptor (GR) signaling pathway (AID 720692; active = well fitted inhibition curve with a large enough effect in the signal ratio in the repeat runs, not every such curve was filed as active; inconclusive = weak or mixed curves, or effect the other way; inactive = no such curve, though single readings can be large or run the other way; the % refers to the signal ratio; note: potency is the fitted concentration of half-maximal effect); conditions: GR-bla HeLa, beta-lactamase FRET ratio, dexamethasone-stimulated, 18 h; activity change, negative = inhibition: at 58.5 µM (top of the series) unless noted
# In short: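 Cells plated, rested 4 h at 37 C/5% CO2; compounds in DMSO pin-transferred; dexamethasone added to 5 nM final; 18 h at 37 C; B/G FRET substrate added, 2 h room temperature; fluorescence measured.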
# [8] = qHTS assay for identifying genotoxic compounds that show differential cytotoxicity against isogenic chicken DT40 cell lines with known DNA damage response pathways - Rad54/Ku70 mutant cell line (AID 743015); conditions: DT40 Rad54/Ku70 mutant viability, CellTiter-Glo, 40 h; activity change, negative = cytotoxicity: at 66.8 µM (top of the series) unless noted; note: potency is the fitted concentration of half-maximal effect; nearly all actives have a fitted effect of over 60% in size
# [9] = qHTS assay to identify small molecule antagonists of the thyroid receptor (TR) signaling pathway - cell viability counter screen (AID 743064); conditions: GH3.TRE-Luc viability, CellTiter-Fluor, 24 h; activity change, negative = cytotoxic: at 70.3 µM (top of the series) unless noted; note: potency is the fitted concentration of half-maximal effect; nearly all actives have a fitted effect of over 50% in size
# In short: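 Same-well viability check: GH3.TRE-Luc cells stimulated with 1 nM T3 alongside test compound for 23.5 h, followed by CellTiter-Fluor fluorescence.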
# [10] = test system: thyroid hormone receptor (rat, GH3 cells); assay: qHTS assay to identify small molecule agonists of the thyroid receptor (TR) signaling pathway (AID 743066; calls by dose curve; note: % is set by controls: 0 for no effect and ±100 for the full control effect); conditions: GH3.TRE-Luc cells, TR agonist luciferase, 24 h; activation: at 83.9 µM (top of the series) unless noted
# [11] = biological target: Peroxisome proliferator-activated receptor gamma (Homo sapiens) (UniProt P37231); assay: qHTS assay to identify small molecule agonists of the peroxisome proliferator-activated receptor gamma (PPARg) signaling pathway (AID 743094; active = well fitted activation curve with a large enough effect in the signal ratio in the repeat runs, not every such curve was filed as active; inconclusive = weak or mixed curves, or effect the other way; inactive = no such curve, though single readings can be large or run the other way; the % refers to the signal ratio; note: potency is the fitted concentration of half-maximal effect); conditions: HEK293H PPARg-UAS-bla, beta-lactamase FRET ratio, 17 h; activation: at 57 µM (top of the series) unless noted
# UniProt P37231, sequence (P37231 whole entry, looked up): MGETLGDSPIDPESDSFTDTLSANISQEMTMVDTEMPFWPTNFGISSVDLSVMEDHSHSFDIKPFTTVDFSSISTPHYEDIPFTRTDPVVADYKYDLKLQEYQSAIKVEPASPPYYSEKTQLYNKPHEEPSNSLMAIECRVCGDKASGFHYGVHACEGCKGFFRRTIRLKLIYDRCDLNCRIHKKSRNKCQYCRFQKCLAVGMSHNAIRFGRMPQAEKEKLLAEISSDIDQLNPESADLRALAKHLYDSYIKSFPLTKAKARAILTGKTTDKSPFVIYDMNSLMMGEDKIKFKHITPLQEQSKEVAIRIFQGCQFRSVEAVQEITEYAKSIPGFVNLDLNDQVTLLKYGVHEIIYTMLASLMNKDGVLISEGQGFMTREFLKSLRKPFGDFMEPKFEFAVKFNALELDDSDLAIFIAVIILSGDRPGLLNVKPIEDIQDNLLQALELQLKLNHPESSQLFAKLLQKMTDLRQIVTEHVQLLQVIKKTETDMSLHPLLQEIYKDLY
# In short: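 Quantitative HTS agonist mode: stable HEK293H line with UAS-beta-lactamase reporter under PPARg control, 17 h compound exposure at 37C, fluorescence after 1 h FRET substrate loading at room temperature.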
# [12] = qHTS assay to identify small molecule antagonists of the androgen receptor (AR) signaling pathway - cell viability counter screen (AID 743033; note: potency is the fitted concentration of half-maximal effect; nearly all actives have a fitted effect of over 45% in size); conditions: AR-bla HEK293 viability, CellTiter-Glo luminescence, 16 h; activity change, negative = cytotoxicity: at 58.5 µM (top of the series) unless noted
# [13] = biological target: Androgen receptor (Homo sapiens) (UniProt P10275); assay: qHTS assay to identify small molecule antagonists of the androgen receptor (AR) signaling pathway (AID 743035; active = well fitted inhibition curve with a large enough effect in the signal ratio in the repeat runs, not every such curve was filed as active; inconclusive = weak or mixed curves, or effect the other way; inactive = no such curve, though single readings can be large or run the other way; the % refers to the signal ratio; note: potency is the fitted concentration of half-maximal effect); conditions: HEK293 AR-UAS-bla, R1881-stimulated, beta-lactamase FRET, 16 h; activity change, negative = inhibition: at 58.5 µM (top of the series) unless noted
# UniProt P10275, sequence (P10275 whole entry, looked up): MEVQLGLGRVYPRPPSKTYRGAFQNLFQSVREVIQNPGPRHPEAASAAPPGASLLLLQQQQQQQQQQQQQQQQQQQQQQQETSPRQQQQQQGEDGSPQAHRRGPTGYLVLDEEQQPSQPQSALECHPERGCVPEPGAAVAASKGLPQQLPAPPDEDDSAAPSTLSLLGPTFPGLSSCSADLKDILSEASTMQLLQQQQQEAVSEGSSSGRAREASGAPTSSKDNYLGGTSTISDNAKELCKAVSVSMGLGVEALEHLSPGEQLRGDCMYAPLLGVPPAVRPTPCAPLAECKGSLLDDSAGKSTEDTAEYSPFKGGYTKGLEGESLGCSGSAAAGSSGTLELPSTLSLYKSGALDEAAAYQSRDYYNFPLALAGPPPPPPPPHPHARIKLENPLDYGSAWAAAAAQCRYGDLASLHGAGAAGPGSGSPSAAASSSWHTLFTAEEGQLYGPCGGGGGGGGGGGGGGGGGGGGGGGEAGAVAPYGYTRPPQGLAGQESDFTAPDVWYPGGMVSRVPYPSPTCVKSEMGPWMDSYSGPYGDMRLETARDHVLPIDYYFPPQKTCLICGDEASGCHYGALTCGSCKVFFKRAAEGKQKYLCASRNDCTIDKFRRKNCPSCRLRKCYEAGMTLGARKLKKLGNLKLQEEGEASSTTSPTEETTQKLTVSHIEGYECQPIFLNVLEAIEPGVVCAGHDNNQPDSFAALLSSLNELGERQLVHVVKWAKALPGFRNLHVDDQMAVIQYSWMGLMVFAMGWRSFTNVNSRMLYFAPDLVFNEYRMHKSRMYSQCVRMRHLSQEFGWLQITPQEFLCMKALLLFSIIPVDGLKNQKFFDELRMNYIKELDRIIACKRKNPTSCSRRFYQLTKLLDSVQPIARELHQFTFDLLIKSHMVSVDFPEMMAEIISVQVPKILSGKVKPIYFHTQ
# In short: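 Antagonism is scored as loss of R1881-driven beta-lactamase reporter expression in HEK293 cells carrying the reporter under a UAS element, after 16 h co-treatment at 37C and a 2 h room-temperature FRET substrate read.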
# [14] = biological target: Androgen receptor (Homo sapiens) (UniProt P10275); assay: qHTS assay to identify small molecule antagonists of the androgen receptor (AR) signaling pathway using the MDA cell line (AID 743042; note: potency is the fitted concentration of half-maximal effect; nearly all actives have a fitted effect of over 55% in size)
# In short: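 MDA-kb2 breast carcinoma cells carrying MMTV-luciferase (AR/GR responsive) were co-treated with compounds and the agonist R1881 for 16 h at 37C. Inhibition read as ONE-Glo luminescence; CellTiter-Fluor fluorescence measured in parallel for cytotoxicity.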
# [15] = biological target: Estrogen receptor (Homo sapiens) (UniProt P03372); assay: qHTS assay to identify small molecule antagonists of the estrogen receptor alpha (ER-alpha) signaling pathway (AID 743069; active = well fitted curve in the direction sought with a large enough effect in the signal ratio in the repeat runs, not every such curve was filed as active; inconclusive = weak or mixed curves, or effect the other way; inactive = no such curve, though single readings can be large or run the other way; the % refers to the signal ratio; note: % is set by controls: 0 for no effect and ±100 for the full control effect); conditions: HEK293 ER-alpha-UAS-bla, beta-lactamase ratio, antagonist mode; activity, negative = inhibition: at 69.4 µM (top of the series) unless noted
# UniProt P03372, sequence (P03372 whole entry, looked up): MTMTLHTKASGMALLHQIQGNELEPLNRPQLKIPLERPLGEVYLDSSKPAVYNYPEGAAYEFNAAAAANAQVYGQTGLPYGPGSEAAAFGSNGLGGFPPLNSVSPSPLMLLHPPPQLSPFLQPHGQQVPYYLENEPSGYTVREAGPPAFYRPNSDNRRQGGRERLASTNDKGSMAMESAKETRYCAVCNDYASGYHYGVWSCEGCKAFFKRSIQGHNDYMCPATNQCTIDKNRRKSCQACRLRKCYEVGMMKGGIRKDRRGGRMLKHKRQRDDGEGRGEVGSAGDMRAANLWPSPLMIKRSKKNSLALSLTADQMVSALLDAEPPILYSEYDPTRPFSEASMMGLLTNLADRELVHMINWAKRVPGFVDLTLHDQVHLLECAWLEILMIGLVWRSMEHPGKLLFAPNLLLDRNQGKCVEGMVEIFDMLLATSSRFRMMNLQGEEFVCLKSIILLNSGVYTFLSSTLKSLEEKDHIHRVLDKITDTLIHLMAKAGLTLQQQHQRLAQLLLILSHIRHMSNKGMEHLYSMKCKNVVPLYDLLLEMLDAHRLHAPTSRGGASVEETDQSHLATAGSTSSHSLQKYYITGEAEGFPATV
# In short: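 Reporter cells (ER-alpha-bla, HEK293 background) are conditioned overnight in stripped-serum medium (2% charcoal-stripped FBS). Compound and 17beta-estradiol exposure runs 18 hr at 37C, 5% CO2.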
# [16] = biological target: Estrogen receptor (Homo sapiens) (UniProt P03372); assay: qHTS assay to identify small molecule agonists of the estrogen receptor alpha (ER-alpha) signaling pathway using the BG1 cell line (AID 743079); conditions: BG1Luc4E2 cells, ERE-luciferase agonist, 22 h; activation: at 70.3 µM (top of the series) unless noted; note: % is set by controls: 0 for no effect and ±100 for the full control effect; nearly all actives have a fitted effect of over 20% in size
# [17] = qHTS assay to identify small molecule antagonists of the estrogen receptor alpha (ER-alpha) signaling pathway using the BG1 cell line (AID 743080; calls by dose curve;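 note: BG1 cells stimulated with 17beta-estradiol alongside compound; potency is the fitted concentration of half-maximal effect; nearly all actives have a fitted effect of over 25% in size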); conditions: BG1Luc4E2 ERE-luciferase antagonist mode, luminescence; activity change, negative = inhibition: at 70.3 µM (top of the series) unless noted
# In short: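 BG1-Luc-4E2 cells (endogenous full-length ER-alpha, 4xERE luciferase) hormone-starved 5 days in charcoal-stripped FBS, plated 4,000/well for 24 h, then compound plus 17beta-estradiol for 21.5 h at 37 C; ONE-Glo luminescence read.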
# [18] = qHTS assay to identify aromatase inhibitors - cell viability counter screen (AID 743084); conditions: MCF-7 aro ERE viability, CellTiter-Fluor, 24 h; activity change, negative = cytotoxicity: at 70.3 µM (top of the series) unless noted;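 note: cells stimulated with testosterone during compound exposure; potency is the fitted concentration of half-maximal effect; nearly all actives have a fitted effect of over 55% in size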
# [19] = qHTS assay for small molecule disruptors of the mitochondrial membrane potential (AID 720635); conditions: HepG2 mitochondrial membrane potential, Mito-MPS dye ratio; ratio activity, negative = MMP loss: at 83.2 µM (top of the series) unless noted; note: % is set by controls: 0 for no effect and ±100 for the full control effect
# In short: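 HepG2 cells exposed to compound 1 hr at 37C, then Mito-MPS dye 30 min. Ratio read of aggregate (540/590 nm) versus monomer (490/535 nm) fluorescence.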
# [20] = biological target: Androgen receptor (Homo sapiens) (UniProt P10275); assay: qHTS assay to identify small molecule agonists of the androgen receptor (AR) signaling pathway (AID 743036; active = well fitted activation curve with a large enough effect in the signal ratio in the repeat runs, with a control signal flat, not every such curve was filed as active; inconclusive = weak or mixed curves, or effect the other way; inactive = no such curve, though single readings can be large or run the other way; the % refers to the signal ratio; note: potency is the fitted concentration of half-maximal effect); conditions: HEK293 AR-UAS-bla GripTite, beta-lactamase FRET ratio, 16 h; activation: at 62.4 µM (top of the series) unless noted
# In short: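 Agonist activity was scored by beta-lactamase reporter fluorescence in stably transfected HEK293 cells exposed to compounds for 16 h at 37C and 5% CO2. Substrate loading took 2 h at room temperature.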
# Aromatase (Homo sapiens) = Aromatase (Homo sapiens) (UniProt P11511); assay: qHTS assay to identify aromatase inhibitors (AID 743083); note: potency is the fitted concentration of half-maximal effect; nearly all actives have a fitted effect of over 55% in size
# UniProt P11511, sequence (P11511 whole entry, looked up): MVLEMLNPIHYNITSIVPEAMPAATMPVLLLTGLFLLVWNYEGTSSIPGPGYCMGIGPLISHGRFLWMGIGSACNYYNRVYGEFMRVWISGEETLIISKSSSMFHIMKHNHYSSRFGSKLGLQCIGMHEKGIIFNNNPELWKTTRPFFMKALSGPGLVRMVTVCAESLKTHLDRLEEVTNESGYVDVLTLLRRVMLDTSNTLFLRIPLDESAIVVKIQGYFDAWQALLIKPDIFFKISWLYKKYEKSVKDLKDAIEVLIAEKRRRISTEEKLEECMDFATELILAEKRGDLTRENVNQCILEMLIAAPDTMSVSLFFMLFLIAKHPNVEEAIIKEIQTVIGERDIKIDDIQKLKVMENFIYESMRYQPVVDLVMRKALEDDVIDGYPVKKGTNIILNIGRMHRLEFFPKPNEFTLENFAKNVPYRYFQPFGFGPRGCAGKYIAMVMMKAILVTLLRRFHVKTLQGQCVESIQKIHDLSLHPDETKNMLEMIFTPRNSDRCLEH
# Tags give direction and shape of the fitted curve or compound fluorescence and quenching.
smiles,measurement,setting,value
NC(=O)[C@@H]1C[C@]2(NC(=O)NC2=O)c2cc(F)ccc2O1,Potency,[1],inactive
same,Potency,[2],inactive
same,Potency,[3],"inconclusive: 29.8 µM [rising, partial curve, poor fit]"
same,Potency,[4],inactive
same,Potency,[5],inactive
OC[C@H]1OC([S-])[C@H](O)[C@@H](O)[C@@H]1O.[Au+] (stereo partly specified),Potency,[1],inconclusive: 2.37 µM [inhibitor]
same,Potency,[6],"inconclusive: 2.68 µM [inhibitor, full curve]"
same,Potency,[7],"inconclusive: 0.674 µM [rising, full curve, poor fit]"
same,Potency,[8],"inconclusive: 11.9 µM [cytotoxic, full curve]"
same,Potency,[9],active: 10.6 µM
same,activation,[10],inconclusive: -7.36% [phenotype inactive]
same,Potency,[11],"inconclusive: 4.77 µM [fluorescent, full curve]"
C=C1CC[C@@H]2[C@](C)(CO)[C@H](O)CC[C@@]2(C)[C@@H]1C/C=C1/C(=O)OC[C@H]1O,Potency,[1],inconclusive: 37.6 µM [activator]
same,activation,[6],inconclusive: -9.14% [phenotype inactive]
same,"activity change, negative = inhibition",[7],inconclusive: -37.9%
same,Potency,[12],"inconclusive: 0.301 µM [cytotoxic, full curve]"
same,Potency,[13],"inconclusive: 6.74 µM [falling, full curve, poor fit]"
same,Potency,[14],"inconclusive: 33.5 µM [inhibitor, single point]"
same,Potency,[9],active: 21.1 µM
same,activation,[10],inconclusive: -9.41% [phenotype inactive]
same,Potency,[15],inactive
same,Potency,[4],inactive
same,Potency,[16],inactive
same,Potency,[17],"inconclusive: 29.8 µM [rising, partial curve]"
same,Potency,[5],inactive
same,Potency,[18],"inconclusive: 29.8 µM [cytotoxic, single point]"
same,Potency,[11],"inconclusive: 26.8 µM [rising, partial curve, poor fit]"
NNc1nnc(Cc2ccncc2)c2ccccc12,Potency,[1],"inconclusive: 33.5 µM [rising, partial curve, poor fit]"
same,"ratio activity, negative = MMP loss",[19],inconclusive: 32.5%
same,Potency,[8],inconclusive: 33.5 µM [cytotoxic]
same,Potency,[13],inactive
same,Potency,[20],"inconclusive: 6.01 µM [rising, full curve, poor fit]"
same,Potency,[4],inactive
same,Potency,[5],"inconclusive: 11.9 µM [cytotoxic, single point]"
same,Potency,Aromatase (Homo sapiens),active: 13.3 µM
same,activation,[11],inconclusive: 7.89%
